Results reported in PubChem BioAssay AID894 (National Center for Advancing Translational Sciences (NCATS), 2007).
Values joined by “and” are separate entries in the source; they are usually repeats but may differ in a detail not shown here. Identical values can stand only once. Screen size: about 150,000 compounds; about 6,500 (4.3%) were called active. The inconclusive results got no clear call from the source; some entries with a clear call stand among them for comparison. Calls come from the whole dose curve; as a rule, active = well fitted inhibition curve with a large enough effect (not every such curve was filed as active); inconclusive = small, poorly fitted or top-dose-only effect, or another doubt; inactive = no such curve, though single readings can be large or run the other way. Potencies of inconclusive entries are doubtful fits and often do not repeat.

target: 15-hydroxyprostaglandin dehydrogenase [NAD(+)] (Homo sapiens) (UniProt P15428); assay: qHTS Assay for Inhibitors of HPGD (15-Hydroxyprostaglandin Dehydrogenase); details: purified HPGD, NADH fluorescence kinetic, PGE2 substrate; activity change, negative = inhibition: hits give low values
Summary of the method: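 NADH formation kinetics: reaction with 30 uM PGE2 and 1 mM NAD+ (final), 20 nM enzyme, Tris-HCl pH 8 with Tween 20, after 15 min compound preincubation at room temperature. Fluorescence change, last versus first of five reads.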
% is set by controls: 0 for no effect and ±100 for the full control effect; potency is the fitted concentration of half-maximal effect; tags give direction and shape of the fitted curve.

Chain of UniProt P15428 (P15428 whole entry, looked up): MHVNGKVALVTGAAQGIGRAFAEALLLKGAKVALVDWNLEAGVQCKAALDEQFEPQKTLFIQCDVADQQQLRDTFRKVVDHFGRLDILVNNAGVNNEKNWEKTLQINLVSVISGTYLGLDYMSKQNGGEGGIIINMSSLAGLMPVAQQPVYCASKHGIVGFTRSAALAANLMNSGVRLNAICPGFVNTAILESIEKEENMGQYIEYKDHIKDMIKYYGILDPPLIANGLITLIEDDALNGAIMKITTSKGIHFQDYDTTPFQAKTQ

Activity change, negative = inhibition, inactive:
COC(=O)c1ccc(C(NC(=O)OCc2ccccc2)/C(C)=C/[C@@H](C)C(=O)N(C)Cc2cccnc2)cc1 (stereo partly drawn) -10.9%
Cc1cccc(C(=O)Oc2ccccc2/C=N/Nc2ccc([N+](=O)[O-])cc2)c1 -9.73%
CC(C)CNC1=C(C(=S)Nc2ccccc2)C(=O)CC(C)(C)C1 -0.263%
CCCSc1nc(C)cc(=O)[nH]1 -3.21%
CCC(=O)N1CCc2cc(S(=O)(=O)NCCC(=O)N3CC=C(c4ccccc4)CC3)ccc21 -2.75%
COc1ccc(-c2nc3cc(NC(=S)NC(=O)Cc4ccccc4)ccc3o2)cc1 -13.8%
NC(=O)c1ccc[n+](CC(=O)OCCC23CC4CC(CC(C4)C2)C3)c1 -7.16%
CC(C)NC(=S)N1CCN(S(=O)(=O)c2cccc(C(F)(F)F)c2)CC1 1.14%
CN(C)S(=O)(=O)N1CCN(C(=O)N(c2ccccc2)c2ccccc2)CC1 -3.71%
C=CCNC(=O)COc1cc(C)ccc1C -8.37%
Cc1cc(Cl)cc(C)c1OCCCCN1CCOCC1 -4.38%
COc1ccc(CCNCc2csc3nc4ccccc4n23)cc1OC -7.54%
CC(C)(C)c1nnc(N/N=C/c2ccccc2)n(N)c1=O -2.19%
Clc1ccccc1CNCC1CCC(CNCc2ccccc2Cl)CC1 (stereo not drawn) -5.97%
COC(=O)c1ccc2nc(NC(=O)COC(=O)CSc3nc(C)cc(C)n3)sc2c1 -17.9%
Cc1ccc(C)c2sc(NC(=O)c3nc4ccccc4s3)nc12 -15%
CC1(C)C(=O)OC(C(=O)c2ccccc2)C2(CCCCC2)C1=O (stereo not drawn) -14.1%
COc1cc(NS(=O)(=O)c2ccc(C)c(C)c2)c(OC)cc1Cl -10.2%
CO[C@@H]1C=CO[C@]2(C)Oc3c(C)c(O)c4c(O)c(c(C=NN5CCN(C)CC5)c(O)c4c3C2=O)NC(=O)C(C)=CC=C[C@H](C)[C@H](O)[C@H](C)[C@H](O)[C@H](C)[C@H](OC(C)=O)[C@H]1C -2.94%
C[C@H]1Cc2c(-c3ccccc3)nc3c(c2CO1)CN(S(=O)(=O)c1ccc(C#N)cc1)CC3 -0.996%
Cc1ccc(-n2c(Cc3cccn3C)nnc2SCC(=O)Nc2nnc(C)s2)cc1 -9.9%
CC(=O)N[C@@H](CS)C(=O)O -20.7% and -5.93%
COC(=O)c1cc(S(=O)(=O)n2nc(C)cc2C)c(Cl)cc1Cl -14.4%
CCOC(=O)CSc1snnc1-c1ccccc1 -3.91%

Potency, active:
Cc1nc2ccc(C(=O)c3ccccc3)cc2[nH]1 17.8 µM
COc1ccc(-n2c(=S)[nH]c3sc4c(c3c2=O)CCc2ccccc2-4)cc1 12.6 µM
Oc1ccc(/C=N/N=C(c2ccccc2)c2ccccc2)c(O)c1O 15.8 µM
O=C(CSc1n[nH]c(-c2cccnc2)n1)Nc1ccnc2ccccc12 15.8 µM
Cc1cc(C)c2nc3s/c(=C/c4ccccc4)c(=O)n3c2c1 5.01 µM
O=C(O)c1cc(=O)c2c(Cl)cc(Cl)cc2[nH]1 31.6 µM and 28.2 µM
Cc1ccc(Sc2ccc(NC(=O)CCl)cc2)c(C)c1 11.2 µM
O=C(/C=C/c1ccccc1)c1cc(Br)ccc(=O)c1O 20 µM
O=c1c2ccccc2nc(N/N=C/c2c(O)ccc3ccccc23)n1O 22.4 µM
c1ccc(CCNc2ncnc3c2cnn3-c2ccccc2)cc1 15.8 µM
CC(Sc1nc(-c2ccccc2)cc(C(F)(F)F)n1)C(=O)Nc1sc2c(c1C(N)=O)CCC2 (stereo not drawn) 31.6 µM
CCOC(=O)c1ccc(NS(=O)(=O)c2ccc3[nH]c(=O)[nH]c3c2)cc1 28.2 µM
CCOc1ccc(N=Nc2c(=O)[nH]n3c(=O)cc(C)[nH]c23)cc1 39.8 µM
O=C(c1ccc(Cl)cc1)c1ccc(OCC(=O)N2CCOCC2)cc1 28.2 µM
O=C1C2C3C=CC(CO)(O3)C2C(=O)N1c1ccccc1-c1ccccc1 (stereo not drawn) 7.94 µM
CCSc1nnc(NC(=O)c2cccc(OCc3c(C)noc3C)c2)s1 25.1 µM

Potency, inconclusive:
Cc1ccc(-n2nc3c4c(cccc4c2=O)-c2ccccc2-3)cc1 22.4 µM [inhibitor, partial curve]
c1ccc(N2CCN(c3ncnc4scc(-c5cccs5)c34)CC2)cc1 25.1 µM [inhibitor, single point]
CCOC(=O)c1cnn(-c2nc(-c3ccc(F)cc3)cs2)c1C(F)(F)F 35.5 µM [inhibitor, single point]
CNc1nc(Sc2cccc(C(F)(F)F)c2)cc(C(F)(F)F)n1 31.6 µM [inhibitor, partial curve]
CCCn1c(C)cc(/C=C(\C#N)C(=O)OCC(=O)Nc2cccc(OC)c2)c1C 35.5 µM [inhibitor, single point]
CC(=O)c1c(C)nn(CC(O)Cn2c3c(c4cc(C)ccc42)CCCC3=O)c1C (stereo not drawn) 28.2 µM [inhibitor, partial curve]
CN1CCCCc2c1[nH]c1ccccc1c2=O 17.8 µM [inhibitor, partial curve]
O=C1C=CC(=O)c2c(O)c(Cl)c(Cl)c(O)c21 3.55 µM [inhibitor, partial curve]
CCOC(=O)Cc1c(C)nc2c(-c3ccccc3)c(C)[nH]n2c1=O 31.6 µM [inhibitor, partial curve]
CCOC(=O)CSc1nc2ccccc2c(=O)n1CCCCCC(=O)NCc1ccco1 22.4 µM [inhibitor, partial curve, poor fit]
O=C(CSc1nnc(CCCN2C(=O)c3cccc4cccc(c34)C2=O)n1-c1ccccc1)NCCCN1CCOCC1 22.4 µM [inhibitor, partial curve]
Cc1cc(C)c2c(n1)nn1c(NCCCN(C)C)cc(C)nc21 28.2 µM [inhibitor, partial curve]
COc1cccc(-c2nc(CS(=O)(=O)CC(=O)NC3CCCc4ccccc43)c(C)o2)c1 (stereo not drawn) 31.6 µM [inhibitor, partial curve]
O=C(CC(=O)NC1CCCCC1)N/N=C/c1cccc2ccccc12 20 µM [inhibitor, partial curve]
O=c1cc(-c2ccccc2)[nH]c2cc(F)ccc12 35.5 µM [inhibitor, single point]
c1ccc(CNc2ccc3ccccc3n2)nc1 28.2 µM [inhibitor, partial curve]
Cc1nn(Cc2ccccc2)c2c1C(c1ccccc1)C(C#N)=C(N)O2 (stereo not drawn) 22.4 µM [inhibitor, single point]
O=C(CSc1nc2ccccc2n1-c1ccccc1)NCC1CCCO1 (stereo not drawn) 31.6 µM [inhibitor, single point]
O=C(c1ccco1)N1CCC2(CC1)CN(c1ncccn1)C2 17.8 µM [inhibitor, partial curve]
O=C(Nc1ncc(Cc2ccc(SC(F)F)cc2)s1)c1ccccc1 25.1 µM [inhibitor, single point]
CCOC(=O)c1[nH]c2ccc(OC)cc2c1NC(=O)CCN1CCC(C)CC1 28.2 µM [inhibitor, partial curve]
CC1C2CC(CC1(C)C)N(C(=O)Nc1ccc3nccnc3c1)C2 (stereo not drawn) 31.6 µM [inhibitor, partial curve]
CCCC(=O)NC(=S)Nc1ccc(NC(=O)c2cccs2)cc1 15.8 µM [inhibitor, partial curve]
Nc1nc(N2CCCCC2)nc2ccccc12 31.6 µM [inhibitor, partial curve]
CSc1nnc2n(C)c3c(c(=O)n12)C1(CCCC1)Cc1ccccc1-3 31.6 µM [inhibitor, partial curve]
Cc1cc(C)cc(OCC(=O)NNC(=O)c2cc3ccccc3o2)c1 3.98 µM [inhibitor, single point]
COCCN1C=C(C(=O)OC)C(c2ccc3c(c2)OCO3)C(C(=O)OC)=C1 31.6 µM [inhibitor, single point]
O=C(CC1Nc2ccccc2NC1=O)c1ccccc1 (stereo not drawn) 5.01 µM [inhibitor, full curve, poor fit]
CCC(C)NC(=O)c1cc(Sc2nnc(C)s2)nc2ccccc12 (stereo not drawn) 28.2 µM [inhibitor, single point]
COc1ccc(C(=O)c2ccc(N3CCN(C(=O)c4ccc(F)cc4)CC3)c(F)c2)cc1Br 39.8 µM [inhibitor, single point]
CCOCCCNC(=O)C(C)NS(=O)(=O)c1ccc(C)cc1 (stereo not drawn) 28.2 µM [inhibitor, single point]
c1ccc(Nc2ncnc3c2oc2ccccc23)cc1 31.6 µM [inhibitor, partial curve]
Cc1c(NC(=S)N/N=C/c2ccc(N(C)C)cc2)c(=O)n(-c2ccccc2)n1C 31.6 µM [inhibitor, partial curve]
